{"source": "PubChem BioAssay AID1508624", "about": "(National Center for Advancing Translational Sciences (NCATS), 2021)", "note": "The campaign covered roughly 48,000 compounds. About 120 (0.25%) were called active. About 4% were inconclusive and are not listed. Calls follow the shape of the dose curve; as a rule, active = well fitted activation curve with a large enough effect; inconclusive = small, poorly fitted or top-dose-only effect, or another doubt; inactive = no such curve, though single readings can be large or run the other way. The list shows a part of the results."}
{"experiment": "Primary qHTS for Identification of Small Molecule Activators of Huntingtin-Antisense Promoter Activity; also: nearly all actives have a fitted effect of over 55% in size", "conditions": "HEK293 HTT-AS promoter firefly luciferase reporter, 24 h; series mostly up to 57.5 µM; activity change, positive = activation: at the top concentration", "in_short": "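Luminescence was read after Dual-Glo reagent and a 10 min room-temperature incubation. Values were normalized to vehicle (0% activity) and zero RLU (-100% activity). Reporter HEK293 cells had been exposed to compounds (up to 57.5 uM final) for 24 h.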"}
{"smiles": "COc1ccc(CNC(=O)CC2Oc3ccc(C)cc3NC2=O)cc1", "note": "(stereo not given)", "activity change, positive = activation": "inactive: 0.196%"}
{"smiles": "Cc1ccc(S(=O)(=O)N2CCc3cc(C(=O)Nc4c(C)cccc4C(C)C)ccc32)cc1", "activity change, positive = activation": "inactive: -1.36%"}
{"smiles": "COc1cccc(CC(=O)Nc2ccc3nc(Nc4cccc(C(F)(F)F)c4)cc(C)c3c2)c1", "activity change, positive = activation": "inactive: -40%"}
{"smiles": "COC(=O)c1cc2oc3ccccc3c2n1CC(=O)Nc1ccc(F)c(Cl)c1", "activity change, positive = activation": "inactive: -12.8%"}
{"smiles": "COc1ccc(CCNc2nc(SCc3cccc(Cl)c3)nc3ccccc23)cc1OC", "activity change, positive = activation": "inactive: -9.31%"}
{"smiles": "CCOc1ccc(CCNC(=O)c2nn(C)c3c2CSc2ccc(C)cc2-3)cc1OCC", "activity change, positive = activation": "inactive: -58.1%"}
{"smiles": "Cc1cccc(Cn2c(CN3CCCC(C)C3)nc3c2c(=O)n(C)c(=O)n3C)c1", "note": "(stereo not given)", "activity change, positive = activation": "inactive: 6.05%"}
{"smiles": "Fc1ccc(-c2nnn3c2nc(NCc2ccccc2)c2ccccc23)cc1", "activity change, positive = activation": "inactive: -4.01%"}
{"smiles": "CCOc1cc(C(=O)Nc2ccc(-c3nnc4n3CCCCC4)cc2)cc(OCC)c1OCC", "activity change, positive = activation": "inactive: 0.026%"}
{"smiles": "Cn1c(=O)n(C)c2cc(N3CCOCC3)c(NS(=O)(=O)c3ccc(F)cc3)cc21", "activity change, positive = activation": "inactive: -6.47%"}
{"smiles": "O=C1CN(C(=O)c2c(F)cccc2Cl)C(c2ccc(F)cc2)c2cc(Br)ccc2N1", "note": "(stereo not given)", "activity change, positive = activation": "inactive: -20.4%"}
{"smiles": "Cc1ccc2c(c1)c1c(c(=O)n(-c3ccccc3)c(=O)n1CC(=O)c1ccc(Cl)cc1)n2C", "activity change, positive = activation": "inactive: -18%"}
{"smiles": "CN(C(=O)CSc1nc2ccc(NC(=O)c3cccs3)cc2s1)c1ccccc1", "activity change, positive = activation": "inactive: -37.8%"}
{"smiles": "CCOc1ccc(NC(=O)CSc2nccn2C2CCCC2)cc1", "activity change, positive = activation": "inactive: 5.18%"}
{"smiles": "COC(=O)c1cccc(CN2C(=O)SC(Nc3ccccc3C)C2=O)c1", "note": "(stereo not given)", "activity change, positive = activation": "inactive: -9.68%"}
{"smiles": "CCc1ccc(CNC(=O)C2CCN(C(=O)c3ccc(-n4c(C)cc5ccccc54)s3)CC2)cc1", "activity change, positive = activation": "inactive: -80.4%"}
{"smiles": "COc1ccc(-n2c(=O)c3c4c(sc3n(CC(=O)C(C)(C)C)c2=O)CCCC4)c(OC)c1", "activity change, positive = activation": "inactive: -14%"}
{"smiles": "CN1CCN(c2c(F)cc3c(=O)c(C(=O)O)cn(CCF)c3c2F)CC1", "activity change, positive = activation": "inactive"}
{"smiles": "COc1ccc(Cl)cc1C(=O)NCC(c1ccc(N(C)C)cc1)N1CCCC1", "note": "(stereo not given)", "activity change, positive = activation": "inactive: 1.05%"}
{"smiles": "C[N+](C)(C)CC[N+]1(C)Cc2c(Cl)c(Cl)c(Cl)c(Cl)c2C1", "activity change, positive = activation": "inactive: 0.491%"}
{"smiles": "Cc1ccc(NC(=O)C2CCCN(S(=O)(=O)c3ccc4c(c3)CCCC(=O)N4)C2)cc1N(C)C", "note": "(stereo not given)", "activity change, positive = activation": "inactive: -33%"}
{"smiles": "O=C(Cn1c(-c2cccs2)cc2cc(Cl)ccc21)N1CCCCC1", "activity change, positive = activation": "inactive: -19.6%"}
{"smiles": "Cc1ccc(C)c(NC(=O)Cn2c(=O)n(CCCS(=O)(=O)C3CCCCC3)c(=O)c3ccccc32)c1", "activity change, positive = activation": "inactive: -21.3%"}
{"smiles": "Cc1ccc(-c2ccc(CCC(=O)O)n2-c2ccc(C)c(Cl)c2)cc1", "activity change, positive = activation": "inactive: 13.9%"}
{"smiles": "O=C1CCSC2(C(=O)N(Cc3ccccc3)c3ccccc32)N1c1ccccc1", "note": "(stereo not given)", "activity change, positive = activation": "inactive: -43.1%"}
{"smiles": "CCCCOc1ccc(S(=O)(=O)n2nc(C)c(S(=O)(=O)N3CCCCCC3)c2C)cc1", "activity change, positive = activation": "inactive: -9.8%"}
{"smiles": "O=C(NCCCN1CCN(c2ccccc2F)CC1)c1sc2ncccc2c1-n1cccc1", "activity change, positive = activation": "inactive: -19.2%"}
{"smiles": "CC(=O)N1c2ccc(S(=O)(=O)NCC3CCC(C(=O)Nc4cccc(C)c4)CC3)cc2CC1C", "note": "(stereo not given)", "activity change, positive = activation": "inactive: -33.8%"}
{"smiles": "Cc1cc(S(=O)(=O)NCCc2csc(-c3cccc(F)c3)n2)ccc1F", "activity change, positive = activation": "inactive: -36.8%"}
{"smiles": "CCCC(=O)OC1=C(C(C)=O)N(Cc2ccccc2)S(=O)(=O)c2ccccc21", "activity change, positive = activation": "inactive: -23.8%"}
{"smiles": "CCc1ccc2nc(N3CCC(C(=O)NCCC(C)C)CC3)sc2c1", "activity change, positive = activation": "inactive: -15.4%"}
{"smiles": "CCCCNC(=O)c1cnc2c(-c3ccc(OCC)c(OCC)c3)c(C)nn2c1-c1ccccc1", "activity change, positive = activation": "inactive: -11.8%"}
{"smiles": "CCN(Cc1ccccc1)S(=O)(=O)c1ccc(N2CCCCS2(=O)=O)cc1", "activity change, positive = activation": "inactive: -25.1%"}
{"smiles": "O=C(CCS(=O)(=O)c1cc2c(cc1Cl)NC(=O)CO2)NCc1ccccc1", "activity change, positive = activation": "inactive: -8.18%"}
{"smiles": "COc1ccc(C(=O)Nc2nc(-c3nnn(-c4cc(OC)ccc4OC)c3C)ns2)cc1", "activity change, positive = activation": "inactive: -21.8%"}
{"smiles": "Cc1ccc(OCc2cc(=O)n3c(-c4ccccc4)csc3n2)cc1", "activity change, positive = activation": "inactive: -1.6%"}
{"smiles": "O=C(Cn1nnc(-c2cccc(C(F)(F)F)c2)n1)NCc1ccc(F)cc1", "activity change, positive = activation": "inactive: -11.8%"}
{"smiles": "CCc1ccc(CNC(=O)c2cc3cc4ccc(OC)cc4nc3o2)cc1", "activity change, positive = activation": "inactive: -6.28%"}
{"smiles": "Cc1ccc(NC(=O)C(=O)NCC(c2ccc3c(c2)OCO3)N2CCN(C)CC2)cc1C", "note": "(stereo not given)", "activity change, positive = activation": "inactive: -11.3%"}
{"smiles": "Cc1c(C(=O)Oc2ccc(Br)cc2)sc2ncn(Cc3ccccc3F)c(=O)c12", "activity change, positive = activation": "inactive: -2.95%"}
{"smiles": "COc1ccc(-c2cc(C(=O)NCc3ccc(C)cc3)c3cc(C(C)C)ccc3n2)cc1", "activity change, positive = activation": "inactive: -2.34%"}
{"smiles": "CCN(CC)S(=O)(=O)c1ccc2c(c1)c(=O)c(C(=O)N1CCN(c3ccccc3OC)CC1)cn2C", "activity change, positive = activation": "inactive: -3.78%"}
{"smiles": "CC(C)CCNC(=O)Cn1cc(S(=O)(=O)Cc2ccc(F)cc2)c2ccccc21", "activity change, positive = activation": "inactive: -36.4%"}
{"smiles": "COc1cc(NC(=O)Nc2c[nH]c(=O)[nH]c2=O)cc(OC)c1OC", "activity change, positive = activation": "inactive: -4.87%"}
{"smiles": "CC(=O)OCC(CCn1cnc2cnc(N)nc21)COC(C)=O", "activity change, positive = activation": "inactive"}
{"smiles": "COc1ccc(CCNC(=O)c2cc3c(=O)n4ccccc4nc3n2C)cc1", "activity change, positive = activation": "inactive: -0.473%"}
{"smiles": "COc1ccc(NC(=O)Cn2cc(S(=O)(=O)c3ccccc3)c(=O)c3cc(C)ccc32)cc1Cl", "activity change, positive = activation": "inactive: -5.12%"}
{"smiles": "CCc1ccc(NC(=O)CSC2=Nc3ccccc3C3=NC(CC(=O)NCc4cccs4)C(=O)N23)cc1", "note": "(stereo not given)", "activity change, positive = activation": "inactive: -31.8%"}
{"smiles": "COc1cccc(N2CCN(C(=O)c3ccc4c(Cl)c5c(nc4c3)CCCC5)CC2)c1", "activity change, positive = activation": "inactive: -20%"}
{"smiles": "C[C@H](CN1CCCC1)C(=O)c1ccc(C(F)(F)F)cc1", "activity change, positive = activation": "inactive: -10.2%"}
{"smiles": "CCC(=O)N1CCc2cc(Br)cc(S(=O)(=O)N3CCC(C(=O)Nc4cccc(C)c4)CC3)c21", "activity change, positive = activation": "inactive: -27.9%"}
{"smiles": "CCC(Cn1nnc2ccccc2c1=O)NC(=O)Nc1cc(OC)cc(OC)c1", "note": "(stereo not given)", "activity change, positive = activation": "inactive: -9.4%"}
{"smiles": "Cc1cc2c(cc3c(SCc4cccc(Cl)c4)nnc(C)n32)o1", "activity change, positive = activation": "inactive: 11.5%"}
{"smiles": "CCc1cccc(C)c1NC(=O)c1cc2ccccc2o1", "activity change, positive = activation": "inactive: -19.1%"}
{"smiles": "O=C(NCc1ccccc1)c1ccc(CSc2nc3cccnc3n2Cc2ccccc2)cc1", "activity change, positive = activation": "inactive: -34%"}
{"smiles": "Cn1cc(S(=O)(=O)c2ccccc2)c(=O)c2cc(F)c(N3CCCC3)cc21", "activity change, positive = activation": "inactive: -13.5%"}
{"smiles": "COc1cccc(NC(=O)Cn2nc(-c3ccncc3)ccc2=O)c1", "activity change, positive = activation": "inactive: -7.04% [at 11.5 µM, percent change from vehicle, -100% = no light]"}
{"smiles": "CNC(=O)C1CCC(Cn2c(=O)c3sccc3n(CC(=O)Nc3cc(C)cc(C)c3)c2=O)CC1", "note": "(stereo not given)", "activity change, positive = activation": "inactive: -8.29%"}
{"smiles": "O=C(c1c[nH]c2ccc(S(=O)(=O)Nc3ccccc3F)cc2c1=O)N1CCCCCC1", "activity change, positive = activation": "inactive: -20.9%"}
{"smiles": "CC(C)c1ccc(C(=O)CC2(O)C(=O)N(CCc3ccccc3)c3ccc(Cl)cc32)cc1", "note": "(stereo not given)", "activity change, positive = activation": "inactive: -28.6%"}
